# Measurements taken from the supplement of paper PMC8728848.
# Some of the results follow.
# How the values were obtained:
# Assay in all cases: glycan array binding signal (z-score within array); higher = stronger binding
# Details in all cases: glycan notation: IUPAC condensed, linker removed; mutation: R349A
# [1] = molecular target: Neu5Ac(a2-3)Gal(b1-3)[Fuc(a1-4)]GlcNAc
# Procedure, shortened: (§1)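 Arrays were curated from the Consortium for Functional Glycomics database, 3228 in total, and kept only where the protein sequence was available. Binding is expressed as a within-array Z-score. This score was averaged across arrays of the same protein sequence at different concentrations or buffers and across linkers, and negative values can be read as non-binding.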
# [2] = molecular target: Neu5Ac(a2-3)Gal(b1-3)[Fuc(a1-4)]GlcNAc(b1-3)Gal(b1-4)[Fuc(a1-3)]GlcNAc
# Procedure, shortened: as §1
# [3] = molecular target: Neu5Ac(a2-3)Gal(b1-3)[Neu5Ac(a2-3)Gal(b1-4)]GlcNAc
# Procedure, shortened: as §1
# [4] = molecular target: Neu5Ac(a2-3)Gal(b1-3)[Neu5Ac(a2-6)]GalNAc
# Procedure, shortened: as §1
# Neu5Ac(a2-3)Gal(b1-4)Glc = molecular target: Neu5Ac(a2-3)Gal(b1-4)Glc
# Procedure, shortened: as §1
# [5] = molecular target: Neu5Ac(a2-3)Gal(b1-4)GlcNAc
# Procedure, shortened: as §1
# [6] = molecular target: Neu5Ac(a2-3)Gal(b1-4)GlcNAc(b1-2)Man(a1-3)[GlcNAc(b1-2)Man(b1-4)GlcNAc(b1-2)Man(a1-6)]Man(b1-4)GlcNAc(b1-4)GlcNAc
# Procedure, shortened: as §1
# [7] = molecular target: Neu5Ac(a2-3)Gal(b1-4)GlcNAc(b1-2)Man(a1-3)[Neu5Ac(a2-6)Gal(b1-4)GlcNAc(b1-2)Man(a1-6)]Man(b1-4)GlcNAc(b1-4)GlcNAc
# Procedure, shortened: as §1
# [8] = molecular target: Neu5Ac(a2-3)Gal(b1-4)GlcNAc(b1-3)Gal(b1-3)GlcNAc
# Procedure, shortened: as §1
# [9] = molecular target: Neu5Ac(a2-3)Gal(b1-4)GlcNAc(b1-3)Gal(b1-4)GlcNAc
# Procedure, shortened: as §1
# [10] = molecular target: Neu5Ac(a2-3)Gal(b1-4)GlcNAc(b1-3)Gal(b1-4)GlcNAc(b1-3)Gal(b1-4)GlcNAc
# Procedure, shortened: as §1
# [11] = molecular target: Neu5Ac(a2-3)Gal(b1-4)GlcNAc(b1-3)Gal(b1-4)[Fuc(a1-3)]GlcNAc
# Procedure, shortened: as §1
# [12] = molecular target: Neu5Ac(a2-3)Gal(b1-4)GlcNAc(b1-6)[Gal(b1-3)]GalNAc
# Procedure, shortened: as §1
# [13] = molecular target: Neu5Ac(a2-3)Gal(b1-4)GlcNAc(b1-6)[Neu5Ac(a2-3)Gal(b1-3)]GalNAc
# Procedure, shortened: as §1
# [14] = molecular target: Neu5Ac(a2-3)Gal(b1-4)GlcNAc6S
# Procedure, shortened: as §1
# [15] = molecular target: Neu5Ac(a2-3)Gal(b1-4)[Fuc(a1-3)]GlcNAc
# Procedure, shortened: as §1
# [16] = molecular target: Neu5Ac(a2-3)Gal(b1-4)[Fuc(a1-3)]GlcNAc(b1-3)Gal
# Procedure, shortened: as §1
# [17] = molecular target: Neu5Ac(a2-3)Gal(b1-4)[Fuc(a1-3)]GlcNAc(b1-3)Gal(b1-4)GlcNAc
# Procedure, shortened: as §1
# [18] = molecular target: Neu5Ac(a2-3)Gal(b1-4)[Fuc(a1-3)]GlcNAc(b1-3)Gal(b1-4)[Fuc(a1-3)]GlcNAc(b1-3)Gal(b1-4)[Fuc(a1-3)]GlcNAc
# Procedure, shortened: as §1
# [19] = molecular target: Neu5Ac(a2-3)Gal(b1-4)[Fuc(a1-3)]GlcNAc(b1-6)[Gal(b1-3)]GalNAc
# Procedure, shortened: as §1
# [20] = molecular target: Neu5Ac(a2-3)Gal(b1-4)[Fuc(a1-3)]GlcNAc6S
# Procedure, shortened: as §1
# [21] = molecular target: Neu5Ac(a2-3)Gal6S(b1-4)GlcNAc
# Procedure, shortened: as §1
# [22] = molecular target: Neu5Ac(a2-3)Gal6S(b1-4)[Fuc(a1-3)]GlcNAc
# Procedure, shortened: as §1
# Neu5Ac(a2-3)GalNAc = molecular target: Neu5Ac(a2-3)GalNAc
# Procedure, shortened: as §1
# [23] = molecular target: Neu5Ac(a2-3)GalNAc(b1-4)GlcNAc
# Procedure, shortened: as §1
# [24] = molecular target: Neu5Ac(a2-3)[GalNAc(b1-4)]Gal(b1-4)Glc
# Procedure, shortened: as §1
# [25] = molecular target: Neu5Ac(a2-3)[GalNAc(b1-4)]Gal(b1-4)GlcNAc
# Procedure, shortened: as §1
# [26] = molecular target: Neu5Ac(a2-3)[Neu5Ac(a2-6)]GalNAc
# Procedure, shortened: as §1
# Neu5Ac(a2-6)Gal = molecular target: Neu5Ac(a2-6)Gal
# Procedure, shortened: as §1
# Neu5Ac(a2-6)Gal(b1-4)Glc = molecular target: Neu5Ac(a2-6)Gal(b1-4)Glc
# Procedure, shortened: as §1
# [27] = molecular target: Neu5Ac(a2-6)Gal(b1-4)GlcNAc
# Procedure, shortened: as §1
# [28] = molecular target: Neu5Ac(a2-6)Gal(b1-4)GlcNAc(b1-2)Man(a1-3)[Gal(b1-4)GlcNAc(b1-2)Man(a1-6)]Man(b1-4)GlcNAc(b1-4)GlcNAc
# Procedure, shortened: as §1
# [29] = molecular target: Neu5Ac(a2-6)Gal(b1-4)GlcNAc(b1-2)Man(a1-3)[GlcNAc(b1-2)Man(a1-6)]Man(b1-4)GlcNAc(b1-4)GlcNAc
# Procedure, shortened: as §1
# [30] = molecular target: Neu5Ac(a2-6)Gal(b1-4)GlcNAc(b1-2)Man(a1-3)[GlcNAc(b1-2)Man(b1-4)GlcNAc(b1-2)Man(a1-6)]Man(b1-4)GlcNAc(b1-4)GlcNAc
# Procedure, shortened: as §1
# [31] = molecular target: Neu5Ac(a2-6)Gal(b1-4)GlcNAc(b1-2)Man(a1-3)[Neu5Ac(a2-6)Gal(b1-4)GlcNAc(b1-2)Man(a1-6)]Man(b1-4)GlcNAc(b1-4)GlcNAc
# Procedure, shortened: as §1
# [32] = molecular target: Neu5Ac(a2-6)Gal(b1-4)GlcNAc(b1-2)Man(a1-6)[Gal(b1-4)GlcNAc(b1-2)Man(a1-3)]Man(b1-4)GlcNAc(b1-4)GlcNAc
# Procedure, shortened: as §1
# [33] = molecular target: Neu5Ac(a2-6)Gal(b1-4)GlcNAc(b1-2)Man(a1-6)[GlcNAc(b1-2)Man(a1-3)]Man(b1-4)GlcNAc(b1-4)GlcNAc
# Procedure, shortened: as §1
# [34] = molecular target: Neu5Ac(a2-6)Gal(b1-4)GlcNAc(b1-3)Gal(b1-4)GlcNAc
# Procedure, shortened: as §1
# [35] = molecular target: Neu5Ac(a2-6)Gal(b1-4)GlcNAc(b1-3)Gal(b1-4)[Fuc(a1-3)]GlcNAc(b1-3)Gal(b1-4)[Fuc(a1-3)]GlcNAc
# Procedure, shortened: as §1
# [36] = molecular target: Neu5Ac(a2-6)Gal(b1-4)GlcNAc6S
# Procedure, shortened: as §1
# Neu5Ac(a2-6)GalNAc = molecular target: Neu5Ac(a2-6)GalNAc
# Procedure, shortened: as §1
# [37] = molecular target: Neu5Ac(a2-6)GalNAc(b1-4)GlcNAc
# Procedure, shortened: as §1
# Neu5Ac(a2-8)Neu5Ac = molecular target: Neu5Ac(a2-8)Neu5Ac
# Procedure, shortened: as §1
# [38] = molecular target: Neu5Ac(a2-8)Neu5Ac(a2-3)Gal(b1-4)Glc
# Procedure, shortened: as §1
# [39] = molecular target: Neu5Ac(a2-8)Neu5Ac(a2-3)[GalNAc(b1-4)]Gal(b1-4)Glc
# Procedure, shortened: as §1
# [40] = molecular target: Neu5Ac(a2-8)Neu5Ac(a2-8)Neu5Ac
# Procedure, shortened: as §1
# [41] = molecular target: Neu5Ac(a2-8)Neu5Ac(a2-8)Neu5Ac(a2-3)Gal(b1-4)Glc
# Procedure, shortened: as §1
# [42] = molecular target: Neu5Ac(a2-8)Neu5Ac(a2-8)Neu5Ac(a2-3)[GalNAc(b1-4)]Gal(b1-4)Glc
# Procedure, shortened: as §1
# [43] = molecular target: Neu5Ac(a2-8)Neu5Ac(a2-8)Neu5Ac(a2-8)Neu5Ac(a2-3)[GalNAc(b1-4)]Gal(b1-4)Glc
# Procedure, shortened: as §1
# [44] = molecular target: Neu5Ac(b2-6)Gal(b1-4)GlcNAc
# Procedure, shortened: as §1
# Neu5Ac(b2-6)GalNAc = molecular target: Neu5Ac(b2-6)GalNAc
# Procedure, shortened: as §1
# [45] = molecular target: Neu5Ac9Ac(a2-6)Gal(b1-4)GlcNAc
# Procedure, shortened: as §1
# [46] = molecular target: Neu5Gc(a2-3)Gal(b1-3)GlcNAc
# Procedure, shortened: as §1
# [47] = molecular target: Neu5Gc(a2-3)Gal(b1-3)[Fuc(a1-4)]GlcNAc
# Procedure, shortened: as §1
# Neu5Gc(a2-3)Gal(b1-4)Glc = molecular target: Neu5Gc(a2-3)Gal(b1-4)Glc
# Procedure, shortened: as §1
# [48] = molecular target: Neu5Gc(a2-3)Gal(b1-4)GlcNAc
# Procedure, shortened: as §1
# [49] = molecular target: Neu5Gc(a2-3)Gal(b1-4)[Fuc(a1-3)]GlcNAc
# Procedure, shortened: as §1
# [50] = molecular target: Neu5Gc(a2-6)Gal(b1-4)GlcNAc
# Procedure, shortened: as §1
# Neu5Gc(a2-6)GalNAc = molecular target: Neu5Gc(a2-6)GalNAc
# Procedure, shortened: as §1
# [51] = molecular target: Neu5Gc(b2-6)Gal(b1-4)GlcNAc
# Procedure, shortened: as §1
binder,measurement,setting,value
Surfactant Protein D (Human); Neck + Carbohydrate Recognition Domain (NCRD) (Homo sapiens) (protein) MLLFLLSALVLLTQPLGYLEAEMKTYSHRTMPSACTLVMCSSVESGLPGRDRDGREGPRGEKGDPGLPGAAGQAGMPGQAGPVGPKGDNGSVGEPGPKGDTGPSGPPGPPGVPGPAGREGALGKQGNIGPQGKPGPKGEAGPKGEVGAPGMQGSAGARGLAGPKGERGVPGERGVPGNTGAAGSAGAMGPQGSPGARGPPGLKGDKGIPGDKGAKGESGLPDVASLRQQVEALQGQVQHLQAAFSQYKKVELFPNGQSVGEKIFKTAQFVKPFTEAQLLCTQAGGQLASPRSAAENAALQQLVVAKNEAAFLSMTDSKTEGKFTYPTGESLVYSNWAPGEPNDDGGSEDCVEIFTNGKWNDRACGEKALVVCEF,glycan array binding signal (z-score),[1],-0.153
same,glycan array binding signal (z-score),[2],-0.314
same,glycan array binding signal (z-score),[3],0.238
same,glycan array binding signal (z-score),[4],-0.063
same,glycan array binding signal (z-score),Neu5Ac(a2-3)Gal(b1-4)Glc,-0.276
same,glycan array binding signal (z-score),[5],0.011
same,glycan array binding signal (z-score),[6],0.008
same,glycan array binding signal (z-score),[7],0.301
same,glycan array binding signal (z-score),[8],0.839
same,glycan array binding signal (z-score),[9],-0.19
same,glycan array binding signal (z-score),[10],1.44
same,glycan array binding signal (z-score),[11],0.581
same,glycan array binding signal (z-score),[12],-0.637
same,glycan array binding signal (z-score),[13],-0.484
same,glycan array binding signal (z-score),[14],0.679
same,glycan array binding signal (z-score),[15],0.282
same,glycan array binding signal (z-score),[16],0.555
same,glycan array binding signal (z-score),[17],0.031
same,glycan array binding signal (z-score),[18],-0.593
same,glycan array binding signal (z-score),[19],0.266
same,glycan array binding signal (z-score),[20],0.051
same,glycan array binding signal (z-score),[21],0.308
same,glycan array binding signal (z-score),[22],0.415
same,glycan array binding signal (z-score),Neu5Ac(a2-3)GalNAc,0.307
same,glycan array binding signal (z-score),[23],0.241
same,glycan array binding signal (z-score),[24],-0.131
same,glycan array binding signal (z-score),[25],-0.082
same,glycan array binding signal (z-score),[26],0.462
same,glycan array binding signal (z-score),Neu5Ac(a2-6)Gal,-0.213
same,glycan array binding signal (z-score),Neu5Ac(a2-6)Gal(b1-4)Glc,-0.389
same,glycan array binding signal (z-score),[27],-0.381
same,glycan array binding signal (z-score),[28],-0.328
same,glycan array binding signal (z-score),[29],-0.053
same,glycan array binding signal (z-score),[30],0.302
same,glycan array binding signal (z-score),[31],-0.157
same,glycan array binding signal (z-score),[32],-0.509
same,glycan array binding signal (z-score),[33],0.085
same,glycan array binding signal (z-score),[34],0.051
same,glycan array binding signal (z-score),[35],0.014
same,glycan array binding signal (z-score),[36],2.51
same,glycan array binding signal (z-score),Neu5Ac(a2-6)GalNAc,0.373
same,glycan array binding signal (z-score),[37],0.044
same,glycan array binding signal (z-score),Neu5Ac(a2-8)Neu5Ac,0.49
same,glycan array binding signal (z-score),[38],-0.305
same,glycan array binding signal (z-score),[39],0.052
same,glycan array binding signal (z-score),[40],-0.276
same,glycan array binding signal (z-score),[41],-0.257
same,glycan array binding signal (z-score),[42],-0.579
same,glycan array binding signal (z-score),[43],0.12
same,glycan array binding signal (z-score),[44],-0.558
same,glycan array binding signal (z-score),Neu5Ac(b2-6)GalNAc,-0.794
same,glycan array binding signal (z-score),[45],-0.511
same,glycan array binding signal (z-score),[46],-0.261
same,glycan array binding signal (z-score),[47],-0.573
same,glycan array binding signal (z-score),Neu5Gc(a2-3)Gal(b1-4)Glc,-0.082
same,glycan array binding signal (z-score),[48],0.057
same,glycan array binding signal (z-score),[49],-0.422
same,glycan array binding signal (z-score),[50],-0.674
same,glycan array binding signal (z-score),Neu5Gc(a2-6)GalNAc,-0.534
same,glycan array binding signal (z-score),[51],-0.506
